{"source": "PubChem BioAssay AID588855", "about": "(National Center for Advancing Translational Sciences (NCATS), 2011)", "note": "The campaign covered roughly 410,000 compounds. About 5,000 (1.2%) were called active. The inconclusive results got no clear call from the source; some entries with a clear call stand among them for comparison. Calls follow the shape of the dose curve; as a rule, active = well fitted inhibition curve with a large enough effect; inconclusive = small, poorly fitted or top-dose-only effect; inactive = no such curve, though single readings can be large or run the other way. Potencies beside an inconclusive call are fits to weak or partial responses and may not hold up. % is scaled to controls: 0 for no effect and ±100 for the full control effect; potency is read from the fitted curve at half-maximal effect; tags tell the direction and shape of the fitted curve."}
{"test": "qHTS for Inhibitors of TGF-b; also: nearly all actives have a fitted effect of over 65% in size", "details": "HepG2 CAGA-GFP TGF-b/SMAD3 reporter, GFP fluorescence, 18 h, TGF-beta stimulated, 500 pg/mL final; series mostly up to 46.1 µM; activity, negative = inhibition: at the top concentration", "how_it_was_run": "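Using HEPG2 CAGA-GFP reporter cells at 1000 cells/well, we pinned test compounds, stimulated with recombinant TGF-beta (500 pg/mL final) and measured total well GFP after 18 h.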"}
{"smiles": "CCCCN(Cc1ccccc1)C(=O)CN(C)S(=O)(=O)c1ccc2c(c1)c(=O)n(C)c(=O)n2C", "Potency": "inconclusive: 11.2 µM [inhibitor, single point]"}
{"smiles": "CC1=C(C(=O)OC(C)C)C(c2ccc3c(c2)OCO3)NC(=O)N1", "note": "(stereo unspecified)", "activity, negative = inhibition": "inactive: -0.971%"}
{"smiles": "O=[N+]([O-])c1ccccc1S(=O)(=O)N1CCCC(C(F)(F)F)C1", "note": "(stereo unspecified)", "activity, negative = inhibition": "inactive: -23.8%"}
{"smiles": "CCCNC(=O)c1noc2c1CCc1cc(OC)ccc1-2", "Potency": "inconclusive: 4.47 µM [inhibitor, partial curve, poor fit]"}
{"smiles": "COc1ccc(C(=O)Nc2ccc(NC(=O)c3cccs3)cc2)cc1[N+](=O)[O-]", "activity, negative = inhibition": "inactive: 13.4%"}
{"smiles": "Cc1noc(/C=C/c2ccco2)c1S(=O)(=O)N1CCC(C(=O)Nc2ccc(F)cc2F)CC1", "Potency": "inconclusive: 1.78 µM [inhibitor, full curve]"}
{"smiles": "COc1ccc(N(CC(=O)N2CCN(c3ccc(Cl)cc3)CC2)S(=O)(=O)c2c(C)noc2C)cc1", "activity, negative = inhibition": "inactive: -0.399%"}
{"smiles": "C=CCC[C@H](Cc1ccc(F)cc1)C(=O)OC[C@H]1CCCN1C(=O)[C@@H](CC=C)CC(=O)NCCO", "activity, negative = inhibition": "inactive: -24.5%"}
{"smiles": "O=c1[nH]c(NNC(=S)NCc2ccccc2)nc2c1C1(CCCCC1)Cc1ccccc1-2", "Potency": "inconclusive: 35.5 µM [inhibitor, single point]"}
{"smiles": "Cc1sc2nc(SCC(=O)NCCO)n(C)c(=O)c2c1C", "activity, negative = inhibition": "inactive: 12.4%"}
{"smiles": "CC1=C(C(=O)N(C(C)C)C(C)C)CC(CC(=O)NCc2cccs2)C(=O)N1CCC1=CCCCC1", "note": "(stereo unspecified)", "Potency": "inconclusive: 10 µM [inhibitor, partial curve, poor fit]"}
{"smiles": "O=C(COC(=O)/C=C/c1ccc(S(=O)(=O)N2CCOCC2)cc1)NCc1ccccc1", "activity, negative = inhibition": "inactive: -24.1%"}
{"smiles": "Clc1nccc2c1ccc1ccccc12", "Potency": "inconclusive: 0.501 µM [inhibitor, partial curve, poor fit]"}
{"smiles": "CCOC(=O)c1cc(-c2ccc(F)cc2)n(CCC(=O)NC2CCN(Cc3ccccc3)CC2)c1C", "Potency": "inconclusive: 22.4 µM [inhibitor, single point]"}
{"smiles": "O=S(=O)(Nc1cccc2ncccc12)c1cccs1", "Potency": "active: 6.31 µM"}
{"smiles": "CC[C@@H]1C/C=C\\Cc2ccccc2[C@@H](C(=O)C[C@H](O)CC(C)=O)OC1=O", "activity, negative = inhibition": "inactive: 1.73%"}
{"smiles": "COc1ccc(CCNC(=O)CCc2c(C)nc3cc(-c4ccccc4)nn3c2C)cc1OC", "activity, negative = inhibition": "inactive: -25.1%"}
{"smiles": "Nc1c(N(CCC2=CCCCC2)C(=O)c2ccco2)c(=O)[nH]c(=O)n1Cc1ccccc1", "Potency": "inconclusive: 35.5 µM [inhibitor, single point]"}
{"smiles": "COc1ccc(C)cc1NS(=O)(=O)c1ccc2c(c1)[C@H]1C=CC[C@H]1[C@@H](c1cccc(Cl)c1)N2", "Potency": "inconclusive: 11.2 µM [inhibitor, partial curve, poor fit]"}
{"smiles": "O=C1/C(=C\\c2cc([N+](=O)[O-])ccc2O)SC(=S)N1Cc1ccc(Cl)cc1", "activity, negative = inhibition": "inactive: -5.79%"}
{"smiles": "O=C(O)CSc1ncnc2nc[nH]c12", "activity, negative = inhibition": "inactive: 0%"}
{"smiles": "CC(C)OC(=O)c1nnc(Cc2ccc(F)cc2)o1", "Potency": "inconclusive: 35.5 µM [inhibitor, single point]"}
{"smiles": "Cc1ccc(S(=O)(=O)N/N=C/c2cccn2-c2ccc(Cl)cc2)cc1", "activity, negative = inhibition": "inactive: -18.8%"}
{"smiles": "Cc1ccccc1NS(=O)(=O)c1ccc(C(=O)N2CCCCCC2)cc1", "activity, negative = inhibition": "inactive: -24.5%"}
{"smiles": "COc1cc(C(=S)N2CCOCC2)ccc1OC(=O)Cc1ccc(F)cc1", "Potency": "inconclusive: 12.6 µM [inhibitor, single point]"}
{"smiles": "CC1(C)OC(=O)C2=C(C[C@@H](C3CCCCC3)O[C@H]2c2ccc(Cl)cc2)O1", "Potency": "inconclusive: 35.5 µM [inhibitor, single point]"}
{"smiles": "COC(=O)c1sc(-c2ccc(Cl)cc2)cc1NC(=O)/C=C/C(=O)O", "Potency": "inconclusive: 17.8 µM [inhibitor, single point]"}
{"smiles": "COc1ccc(OC)c(CCNC(=O)c2cc3c(-c4ccccc4F)nn(C)c3s2)c1", "Potency": "inconclusive: 8.91 µM [inhibitor, partial curve, poor fit]"}
{"smiles": "O=C1N[C@@H](c2ccccc2)COC(=O)[C@H](Cc2ccc(F)cc2)CC/C=C/C[C@@H]1CC(=O)N(CCO)Cc1ccccc1", "Potency": "inconclusive: 25.1 µM [inhibitor, single point]"}
{"smiles": "Cc1cccc(C(=O)c2cccc(C)c2)c1", "Potency": "inconclusive: 3.98 µM [inhibitor, single point]"}
{"smiles": "CC(=O)Nc1ccc(NC2=C/C(=N/S(=O)(=O)c3cccs3)c3ccccc3C2=O)cc1", "Potency": "active: 5.01 µM"}
{"smiles": "Cc1ccc(Cn2c(N)nc3ccccc32)cc1", "activity, negative = inhibition": "inactive: 3.47%"}
{"smiles": "CCn1c(CN2CCN(c3cccc(Cl)c3)CC2)nc2c1c(=O)[nH]c(=O)n2C", "Potency": "inconclusive: 22.4 µM [inhibitor, single point]"}
{"smiles": "COc1ccc(-c2cc(C(=O)NCc3cccc(Cl)c3)[nH]n2)c(C)c1", "activity, negative = inhibition": "inactive: -5.25%"}
{"smiles": "CCCCn1nnnc1C(c1ccccc1)N1CCN(C/C=C/c2ccccc2)CC1", "note": "(stereo unspecified)", "Potency": "inconclusive: 35.5 µM [inhibitor, single point]"}
{"smiles": "C/C(=N/NC(=O)Nc1ccccc1)c1ccc(C)cc1", "Potency": "inconclusive: 6.31 µM [inhibitor, single point]"}
